These results are taken from paper PMC6212790.

This is one part of the list. At the low end of the ranking the order means little.

In this experiment the target is T1, GST-Rok-C97-191 (UniProt O34857).
T1 sequence: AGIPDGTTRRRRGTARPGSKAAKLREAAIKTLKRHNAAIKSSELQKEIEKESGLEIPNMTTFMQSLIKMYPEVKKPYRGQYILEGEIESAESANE
As to the kind of experiment: protein binding microarray.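 Further: rank score from −0.5 (least bound) to 0.5 (best bound).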 Conditions: Rok is a gene silencer of Bacillus subtilis; high values mean tight binding; most listed sequences are background and not binding sites; double strand, one strand shown.
ACCTCCCG: the binding signal is -0.064 E-score.

Consider GCTCGGAA, for which the binding signal is -0.258 E-score. The figure for CTTCCCAC is -0.058 E-score; for GAGGGACC it is -0.173 E-score. Sequence CTTCCTTA gave a binding signal of -0.0924 E-score. Consider CGCGTGTA, for which the binding signal came to 0.0288 E-score. Turning to ATTTGCTG, the binding signal is -0.0116 E-score.

CCCAATTC had a binding signal of -0.0119 E-score. As to ATGCCTAA, the binding signal is -0.0672 E-score. Consider ACACGGTG, for which the binding signal was -0.194 E-score. The sequence CTGTAGTA showed a binding signal of 0.279 E-score. In turn, ACGAGAAC displayed a binding signal of -0.128 E-score. The sequence AAGTAGAG returned a binding signal of 0.0923 E-score. As to GTTATCCA, the binding signal was 0.165 E-score. Sequence CACCTGAA gave a binding signal of -0.203 E-score. TATCGTGA gave a binding signal of 0.211 E-score.

AACACCTT yielded a binding signal of -0.132 E-score. In turn, ATGATAGA came in with a binding signal of 0.36 E-score. In turn, CGAGAATA yielded a binding signal of 0.142 E-score. On to ACCTTCTA, for which the binding signal came out at 0.212 E-score.

As for TCAGGCGA, the binding signal is -0.0467 E-score. The sequence TATTTGAA came in with a binding signal of -0.00477 E-score.

Regarding ACCCTGTG, the binding signal is -0.188 E-score. ACCGCTGA yielded a binding signal of -0.178 E-score. Sequence AACCAAGA displayed a binding signal of 0.0903 E-score. The sequence ATACTGCG showed a binding signal of 0.0317 E-score.

Consider CGGACCAG, for which the binding signal was -0.182 E-score. In turn, ACACATCA had a binding signal of -0.1 E-score.

CTTCGTAC: the binding signal worked out at 0.112 E-score.

Sequence CGCGAGTC yielded a binding signal of 0.000606 E-score. CCACACAA had a binding signal of 0.034 E-score. The sequence CCCGACTC showed a binding signal of -0.286 E-score. With CGTGCTGC the figure was -0.0586 E-score; with ATCAGAGC, -0.198 E-score; with CGGACTAA, 0.124 E-score. With CATAGGGG the figure was -0.167 E-score; with GGTGCGCA, -0.104 E-score.

As for AAGGGAAG, the binding signal was -0.114 E-score. The figure for ACACCCAA is -0.101 E-score. In turn, ACAACGCG registered a binding signal of 0.0131 E-score. Regarding AAATTTGT, the binding signal came out at 0.33 E-score.

As to CAACATCC, the binding signal was 0.0587 E-score. GGCCCCTA yielded a binding signal of -0.312 E-score.

For GTGGTAAA, the binding signal was determined as 0.21 E-score. For the sequence CCACCGTA, the binding signal is -0.0888 E-score. AAAGCAGA displayed a binding signal of 0.105 E-score. The figure for AACCAAAG is -0.0949 E-score.

The sequence AAAAAGGG came in with a binding signal of -0.153 E-score. As for CTAACTCA, the binding signal is 0.161 E-score. Take TATTAACA: the binding signal came out at 0.262 E-score. AAGGGTTC came in with a binding signal of -0.214 E-score. Sequence GTCAGCCA returned a binding signal of -0.122 E-score. With AGATATCC, the binding signal stood at 0.00982 E-score. Consider GCGCAAAA, for which the binding signal was -0.0364 E-score. AGGCTTGA yielded a binding signal of -0.168 E-score. On to TACCATCA, for which the binding signal was 0.0543 E-score.

On to ATATGGGA, for which the binding signal is 0.146 E-score. Regarding CAGCGAGC, the binding signal was -0.103 E-score. CGCATATC showed a binding signal of 0.198 E-score. In turn, CCAAATTC yielded a binding signal of -0.0104 E-score.

GACGATCA: the binding signal was -0.281 E-score. Turning to AGGGGTCA, the binding signal is -0.143 E-score. Consider ACGTTCTC, for which the binding signal was -0.00213 E-score. As for TATAATCA, the binding signal amounted to 0.232 E-score.

In the case of CGCTAAAC, the binding signal came to 0.142 E-score. On to AGCCCAAA, for which the binding signal is -0.103 E-score. The figure for GTAAGCCA is -0.0686 E-score. Regarding AAATGACA, the binding signal was 0.0262 E-score. As to CCAGTTCC, the binding signal was -0.227 E-score. Sequence GTGATCCA gave a binding signal of 0.0337 E-score.

As to ATTGTTGG, the binding signal turned out to be 0.00149 E-score. As for CCAACTAG, the binding signal is 0.147 E-score.

For CGTCGGAA, the binding signal is -0.0465 E-score. ACGTAAGT: the binding signal is -0.0408 E-score. Sequence CAATAAGG showed a binding signal of 0.0957 E-score. Take TCGCCCAA: the binding signal is -0.12 E-score. Consider CGTGCAAG, for which the binding signal was -0.0991 E-score. TTATTCAA: the binding signal is -0.151 E-score. As to AATGTATA, the binding signal stood at 0.35 E-score.

GAAGGTCA came in with a binding signal of -0.000904 E-score.

With AGCATACC, the binding signal amounted to 0.0391 E-score.

In turn, CCTGCTAG gave a binding signal of -0.24 E-score. Turning to AGCTGCCG, the binding signal is -0.25 E-score. On to ATCCTACG, for which the binding signal worked out at 0.00735 E-score. For the sequence CATGCGCA, the binding signal was -0.165 E-score. For ATTCATGG, the binding signal is 0.00457 E-score. The sequence ACAGCGGT came in with a binding signal of -0.273 E-score. Sequence ACCCTCAT had a binding signal of -0.00647 E-score.

In the case of AAGGTCAG, the binding signal was -0.0443 E-score.

With GCGCTTAC, the binding signal was 0.0403 E-score. For the sequence AACCTGTG, the binding signal is -0.0172 E-score. CCGAGTCA registered a binding signal of -0.186 E-score. With GAAACGCA, the binding signal was -0.276 E-score. The sequence AGTGAGTA came in with a binding signal of 0.119 E-score. Take CTAGACCA: the binding signal was -0.196 E-score.

With CAAGATAA, the binding signal is 0.084 E-score. Sequence ACATCAAG had a binding signal of -0.0361 E-score. ACCGCAAA showed a binding signal of -0.0242 E-score. The figure for AAAACCGC is -0.26 E-score; for AATTCGTC it is 0.0658 E-score; for GGATCGTA it is 0.0309 E-score. With GGGTGACA the figure was -0.0751 E-score.

As to AAAGGTGC, the binding signal was -0.0147 E-score. Regarding GCAACAAA, the binding signal is 0.132 E-score. Turning to CTTTTCAA, the binding signal turned out to be 0.048 E-score.

The sequence TAGACACA registered a binding signal of -0.0912 E-score. With CTTCAAAG the figure was -0.117 E-score.

Take ATATAAAA: the binding signal turned out to be 0.338 E-score. As for ATACAAGC, the binding signal is 0.133 E-score. The figure for AGTAAGGG is -0.154 E-score; for CAGTCACA it is -0.157 E-score; for CCAACGTA it is 0.161 E-score. In turn, AACGAATG showed a binding signal of 0.0308 E-score. On to CAACTGGG, for which the binding signal is -0.245 E-score.

CCTATCCG: the binding signal was -0.175 E-score.

The sequence GTAAATGA yielded a binding signal of 0.0342 E-score. As for CCATGCGA, the binding signal was -0.237 E-score. Consider AATGCGCG, for which the binding signal is -0.0163 E-score.

Sequence CGCACCAC showed a binding signal of -0.22 E-score. ACCTTTGG registered a binding signal of -0.152 E-score. The figure for CCAACGAG is -0.182 E-score; for GCGCCATA it is -0.125 E-score; for ACAGAGAG it is -0.125 E-score. On to CTCACAGA, for which the binding signal was -0.0733 E-score. Sequence ACTGGAGA gave a binding signal of -0.171 E-score.

GCAGATGA returned a binding signal of -0.12 E-score. Take CTTAAGCC: the binding signal is -0.261 E-score. On to AAGGTCTG, for which the binding signal was -0.194 E-score. As for CCTGAAGA, the binding signal is -0.0241 E-score. GCCTCAGC came in with a binding signal of -0.245 E-score.

Sequence GCATGTCA showed a binding signal of -0.16 E-score. The figure for CAGCAATC is -0.0945 E-score; for CGGTGGAC it is -0.316 E-score. With CTCCGTTC the figure was -0.0125 E-score; with GCCTGCCC, -0.294 E-score; with CGTACGTA, 0.05 E-score. Turning to ACACCCGC, the binding signal is -0.182 E-score. In the case of CGACAGAC, the binding signal is -0.0745 E-score. Turning to TGGCACCA, the binding signal amounted to 0.0295 E-score. With CCCCGGCC the figure was -0.298 E-score; with CAATAAAG, -0.113 E-score; with AGGATTAG, 0.114 E-score.

ATACGGTG: the binding signal is 0.081 E-score. With AAGGGCCC, the binding signal is -0.234 E-score.

Take CAATCGCG: the binding signal was -0.0322 E-score. With ACAGATTC, the binding signal was 0.125 E-score. CAACGTTG: the binding signal turned out to be 0.059 E-score. As for ACAGTTCC, the binding signal stood at 0.0309 E-score. Turning to TCCCGTAA, the binding signal came out at 0.148 E-score. With ATATTGCC the figure was 0.109 E-score; with AAAGTTAA, -0.0842 E-score. Turning to CGATTCAC, the binding signal is -0.0667 E-score. As for GGAGCGAC, the binding signal is -0.18 E-score.

Turning to CTCACACC, the binding signal is 0.0115 E-score. Sequence CTTAATTA registered a binding signal of 0.276 E-score. Sequence ACCACCGG yielded a binding signal of -0.0384 E-score.

The sequence ATTCTGTG returned a binding signal of 0.13 E-score. Turning to CTAATGGA, the binding signal was -0.0716 E-score.

For CAGTAGAG, the binding signal was 0.0442 E-score. On to AGAATTTA, for which the binding signal came to 0.279 E-score. Regarding GCTTGACA, the binding signal was -0.145 E-score. On to GAGGCTGC, for which the binding signal is -0.255 E-score. With ATACGCCG, the binding signal was -0.0507 E-score. CTATCCAG: the binding signal amounted to 0.0084 E-score.

As for CGGGTGTC, the binding signal was -0.188 E-score. Sequence CCTTACGA registered a binding signal of 0.0118 E-score.

In turn, CCGGCCGA gave a binding signal of -0.088 E-score. In turn, ACATTATA displayed a binding signal of 0.269 E-score.

With CTTGTCCA, the binding signal is -0.139 E-score.

The sequence CCCAAGAA yielded a binding signal of -0.0746 E-score.

For TAAAGTAA, the binding signal came out at 0.00779 E-score.

Sequence TTCGTCAA returned a binding signal of -0.114 E-score.
